Test results reported in the supplement of paper PMC11417369.
Some of the results follow.

test system: PfSIP2 AP2 domain 1 (GST-tagged); assay: gcPBM binding intensity (ln(normalized median fluorescence intensity)); higher = stronger DNA binding
Outline: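 The highest Masliner-normalised natural-log median intensity across replicate spots of either probe orientation is reported as binding intensity. GST-tagged P. falciparum DNA-binding domains expressed in E. coli were applied for 1 h to an Agilent 4 × 180k array of primer-extended double-stranded 36-bp intergenic genomic probes plus negative controls, and bound protein was detected with Alexa488 anti-GST antibody and scanned at 488 nm.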

Sequence	gcPBM binding intensity (ln)
GTATGTTTGTTATGCACACAAATGCATCTTATTTCC [CACACA_site2690]	8.48
TTTAATTATAAGATAACACACAAAAAAAATAAAATA [CACACA_site254]	7.25
AAAAAAAAAAAAAGCACACACACATATGAGTATATA [CACACA_site4682]	7.17
GTGCCTTTAAAAAAAAGTACAAAAAAGAACGAATTA [XGTACX_site3714]	7.34
AATTTCAAATTGTATGTGCACATGTAGAAGTACTTT	8.76
TATATATATATATATTGTACATTTTTTTTTTTTTTT [XGTACX_site7891]	9.62
TTTTCATTAAATATATATGCATACCATATGTACATT [GTGCAC_negctrl_site539]	7.09
TATGTAAAGAGTAAGGGTACATGTATAATACGGCTC [XGTACX_site1283]	7.18
AAATACTATATCAAGCGTACTTATTTCATGGTAATA [XGTACX_site7878]	6.83
TTTAAAATATTTTCTTGTACGAAGGAACATTTCTTA [XGTACX_site4013]	6.79
TTTATATATATATATATATATAATAAATGATACACA [TGCATGCA_negctrl_site392]	7.4
TATTTTTTTTCTTATACACACCATGCATCAAACTAA [CACACA_site5208]	7.46
TCAAAAATATTCTGGAGTACCTTTTTAAAGGTATAG [XGTACX_site6893]	6.88
TTTGCACCGTTTAAGTGTACAGAATTATGACATATA [XGTACX_site6735]	11.2
TGTGGTTACATGTGCACACACTTATTTCGTTCTTAT [CACACA_site4907]	8.54
TAAATATATATATACACACACATACACAAAAAAAAA [CACACA_site3580]	7.25
ATTGCATATAATGGCACACATAAATCCATAATATAT [CACACA_site297]	7.02
TAATCGAAACAAAGAACATGCAAACATATACCTATA [TGCATGCA_site894]	6.72
CAAAATTTATGTAAAAGTACAAAAATATAGAAAGAT [XGTACX_site1122]	7.31
TGTGTTCATCTATGCACACGCATATATATTATTGTT [CACACA_site5985]	7.01
TTTTATTCCTTCTTTGCACACGTTTAAAAATATATA [CACACA_site2899]	8.04
AATATAATATAAGGATCACACACAAACACCCATATA [CACACA_site8084]	7.11
TAAGTTATATGTATATGTACTTATATATATATATAT [XGTACX_site5402]	9.57
ATTAAAAAAATTAAAAGTACACATATTTCAATGATA [XGTACX_site5606]	6.84
TAAAAAAAAAAAAAAACACACATATAAATATATATA [CACACA_site1243]	7.19
